According to PubChem BioAssay AID686979 (National Center for Advancing Translational Sciences (NCATS), 2013):
The campaign covered roughly 420,000 compounds. About 50,000 (12%) were called active. Inconclusive results, whose numbers are uncertain, are shown with a selection of clear calls. Calls come from the whole dose curve; as a rule, active = well fitted inhibition curve with a large enough effect; inconclusive = small, poorly fitted or top-dose-only effect; inactive = flat fitted curve, though single readings scatter. No potency is given beside an inconclusive call; the fits are too rough.

test: qHTS for Inhibitors of human tyrosyl-DNA phosphodiesterase 1 (TDP1): qHTS in cells in presence of CPT; conditions: chicken DT40 Tdp1-/-;hTDP1 cells + 20 nM CPT, ATP luminescence, 48 h; activity change, negative = growth inhibition: at 46.2 µM (top of the series); note: nearly all actives have a fitted effect of over 55% in size
How it was run: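 Chicken DT40 Tdp1-/- cells stably complemented with human TDP1 were seeded at 400 cells/well in medium containing 20 nM camptothecin, exposed to pin-transferred compounds, and grown at 37 °C for at least 48 hr. Viability was read as ATP luminescence.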
% is set by controls: 0 for no effect and ±100 for the full control effect; potency is the fitted concentration of half-maximal effect; tags give direction and shape of the fitted curve.

Question: Which Potency does the source give for `CCC(=O)C1CCCN(C(=O)CCc2nnc(C3(c4ccc(Cl)cc4)CCC3)o2)C1` (stereo not given) here?
Answer: active: 23.1 µM

Question: Which Potency does the source give for `Cc1ccc([N+](=O)[O-])cc1NC(=O)c1ccoc1C` here?
Answer: inconclusive [inhibitor, single point]

Question: For `Cc1nc(NC(=O)CC(C)C)sc1-c1csc(Nc2ccc(Cl)cc2Cl)n1`, which Potency is on record?
Answer: inconclusive [inhibitor, single point]

Question: For `COc1ccc(CN(C)CC(=O)c2c(N)n(Cc3ccccc3)c(=O)n(C)c2=O)c(OC)c1`, which Potency is on record?
Answer: inconclusive [inhibitor, partial curve]

Question: For `COc1ccc(/C=C2\N=C(C)N(c3ccc4ccccc4c3)C2=O)cc1OC`, which activity change, negative = growth inhibition is on record?
Answer: inconclusive: -30.4% [inhibitor]

Question: With `FC(F)(F)C(F)(F)c1nnc2ccc(-n3ccnc3)nn12` as the compound, how does the Potency read?
Answer: inactive

Question: With `Cn1c(=O)c2cc(NC(=O)OCCF)ccc2n1Cc1cccc(C(F)(F)F)c1` as the compound, how does the Potency read?
Answer: active: 23.1 µM

Question: Which Potency does the source give for `COc1ccc(/C=C2\SC(=S)N(NS(=O)(=O)c3ccc(C)cc3)C2=O)c(OC)c1` here?
Answer: inactive

Question: Which Potency does the source give for `CCCn1cc(S(=O)(=O)c2ccc(C)c(C)c2)c(=O)c2cc(F)c(N3CCCCC3)cc21` here?
Answer: inconclusive [inhibitor, single point]

Question: For `COc1ccc(/C=C(\NC(=O)c2ccc([N+](=O)[O-])cc2)C(=O)NCCCN2CCOCC2)cc1`, which Potency is on record?
Answer: inactive

Question: For `COC(=O)c1ccccc1NC(=O)Cn1cnc2cc(C)c(C)cc21`, which Potency is on record?
Answer: active: 14.6 µM

Question: With `COc1ccccc1CNC(=O)Cc1ccccc1` as the compound, how does the Potency read?
Answer: inactive

Question: For `Cc1ccccc1-c1nc2c(=O)n(C)c(=O)nc-2n(C)n1`, which Potency is on record?
Answer: active: 0.708 µM

Question: For `Cc1ccccc1-c1noc(-c2ccc(NCc3cccnc3)c([N+](=O)[O-])c2)n1`, which Potency is on record?
Answer: active: 4.11 µM

Question: With `O=C(NC1CCCCC1)c1ccc(CSc2nc3cccnc3n2Cc2ccccc2)cc1` as the compound, how does the Potency read?
Answer: inconclusive [inhibitor, single point]

Question: For `CC1=C(c2ccc(C(C)C)cc2)S(=O)(=O)N=C1N1CCC(C(=O)NCc2ccc(C)o2)CC1`, which Potency is on record?
Answer: inconclusive [inhibitor, partial curve]

Question: Which Potency does the source give for `COc1cc(C2Nc3cc(Cl)c(S(N)(=O)=O)cc3S(=O)(=O)N2)ccc1OCc1ccccc1` (stereo not given) here?
Answer: inconclusive [inhibitor, single point]

Question: For `Cc1ccc(S(=O)(=O)N2C(=O)CCC2C(=O)O/N=C(\N)c2cccc([N+](=O)[O-])c2)cc1` (stereo not given), which Potency is on record?
Answer: inactive

Question: With `Cc1ccc(C(C)C)c(OCC(=O)Nc2sc3c(c2C#N)CC(C)(C)NC3(C)C)c1` as the compound, how does the Potency read?
Answer: inconclusive [inhibitor, single point]

Question: Which Potency does the source give for `Cc1cccc2nc(CSc3nc4ccc([N+](=O)[O-])cc4[nH]3)c(Br)n12` here?
Answer: inconclusive [inhibitor, single point]

Question: With `Cc1cc(C)c2c(NC(=O)c3ccccc3Cl)c(C(=O)NCc3ccc(Cl)cc3)sc2n1` as the compound, how does the Potency read?
Answer: inconclusive [inhibitor, single point]

Question: For `CCCn1c(=O)c(Cc2ccccc2)c(O)c2ccccc21`, which Potency is on record?
Answer: inactive

Question: Which Potency does the source give for `O=C(O)c1ccccc1C=NN1CCCCCC1` here?
Answer: inactive

Question: For `O=C(Nc1ccc(S(=O)(=O)NC2=NCCCCC2)cc1)c1ccc(Cl)c([N+](=O)[O-])c1`, which Potency is on record?
Answer: inconclusive [inhibitor, single point]

Question: With `COc1ccc(CNC(=O)c2coc(=O)c3ccccc23)c(OC)c1` as the compound, how does the Potency read?
Answer: inactive

Question: With `CN1CCN(CCCNC(=O)c2ccc(/C=C3\Sc4ccccc4N(Cc4ccccc4F)C3=O)cc2)CC1` as the compound, how does the Potency read?
Answer: inconclusive [inhibitor, single point]

Question: Which Potency does the source give for `O=C(CN1C(=O)c2ccc([N+](=O)[O-])cc2C1=O)Nc1ccccc1N1CCCC1` here?
Answer: inactive

Question: For `Cc1ccc(CN(Cc2cccn2-c2nnc(N3CCCC3=O)s2)C(=O)Nc2ccccc2Cl)cc1`, which Potency is on record?
Answer: inconclusive [inhibitor, single point]

Question: For `CNC[C@@H]1Oc2ccc(NS(=O)(=O)c3ccc(OC)cc3)cc2CC(=O)N([C@H](C)CO)C[C@@H]1C`, which Potency is on record?
Answer: inactive

Question: For `Cc1cc(Nc2cc(Cl)ccc2C)n2nc(-c3ccccc3)nc2n1`, which Potency is on record?
Answer: inconclusive [inhibitor, single point]

Question: Which Potency does the source give for `O=C(CSc1nnc(-c2ccc(Cl)cc2)n1Cc1ccco1)NCc1ccc2c(c1)OCO2` here?
Answer: inconclusive [inhibitor, single point]

Question: With `COCCCn1c(SCc2nnc(-c3ccc(OC)c(OC)c3)o2)nnc1-c1ccncc1` as the compound, how does the Potency read?
Answer: inactive

Question: With `CCOC(=O)c1nnn(-c2nonc2-n2cccc2)c1CN1CCOCC1` as the compound, how does the Potency read?
Answer: inactive

Question: For `CCS(=O)(=O)c1ccc(-c2csc(-c3ccccc3Cl)n2)c(Cl)c1Cl`, which Potency is on record?
Answer: inconclusive [inhibitor, single point]

Question: For `O=C(NCCN1C(=O)S/C(=C/c2cccnc2)C1=O)C1CC(=O)N(Cc2ccccc2)C1` (stereo not given), which Potency is on record?
Answer: inconclusive [inhibitor, partial curve]

Question: Which Potency does the source give for `CCOC(=O)c1c(C)[nH]c(CCC(=O)NCc2ccc(OC)cc2OC)c1C` here?
Answer: inconclusive [inhibitor, single point]

Question: For `Cc1ccc(CNC(=O)Cn2cnc(C(=O)Nc3ccc(C)c(C)c3)n2)o1`, which Potency is on record?
Answer: inactive

Question: Which Potency does the source give for `Cc1ccc(/C=C/C(=O)N2CC(=O)Nc3ccccc32)o1` here?
Answer: inactive

Question: Which Potency does the source give for `COc1ccc(C(=O)C2CCCN(C(=O)COc3ccc(C(C)=O)cc3)C2)cc1F` (stereo not given) here?
Answer: inconclusive [inhibitor, single point]

Question: For `COCCNC(=O)CSc1nnc(-c2ccc(C)cc2)c(-c2ccc(C)cc2)n1`, which Potency is on record?
Answer: active: 25.9 µM

Question: With `Cc1ccc(C2CC(=O)NC(SCC(N)=O)=C2C#N)s1` (stereo not given) as the compound, how does the Potency read?
Answer: inactive

Question: For `Cc1ccc(S(=O)(=O)NC(=O)C2(C)CCN2C(=O)C2(c3ccc(Cl)cc3)CCC2)nc1` (stereo not given), which Potency is on record?
Answer: inconclusive [inhibitor, full curve]

Question: Which Potency does the source give for `COc1ccc(OC)c(-c2noc(N3CCN(c4cccc(C(F)(F)F)c4)CC3)n2)c1` here?
Answer: inconclusive [inhibitor, single point]

Question: With `Cc1nc2cc(NC(=O)CS(=O)(=O)c3ccc(F)cc3)ccc2s1` as the compound, how does the Potency read?
Answer: inconclusive [inhibitor, single point]

Question: For `COc1cccc(CC2(CO)CCCN(Cc3ccc4c(c3)OCCO4)C2)c1` (stereo not given), which Potency is on record?
Answer: inconclusive [inhibitor, single point]
